The whole screen tested about 48,000 compounds, of which about 1,200 (2.5%) were called active. Inconclusive results (about 2%) are left out.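 The calls were made as follows: active = activation of at least 60% and not above a set upper limit (about 1 call in 100 departs from these limits); inconclusive = activation of 40% to 60%, or above that upper limit; inactive = activation under 40%.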 This is one part of the list.
Target: Probable G-protein coupled receptor 32 (Homo sapiens) (UniProt O75388)
Assay: qHTS for Agonists of Human Resolvin D1 Receptor DRV1; also: 0% is about no effect
Details: CHO-K1 GPR32 beta-arrestin PathHunter luminescence, 90 min; at 76.9 µM; active compounds read high; zero percent set by DMSO-only wells
How it was run: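 Agonism was scored by beta-Gal fragment complementation (chemiluminescent read, 1 h detection at ambient temperature) reporting beta-arrestin binding to GPR32 in engineered CHO-K1 cells. Compound treatment lasted 90 min at 37 C, normalized to a DMSO basal control.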

Chain of UniProt O75388 (O75388 whole entry, looked up): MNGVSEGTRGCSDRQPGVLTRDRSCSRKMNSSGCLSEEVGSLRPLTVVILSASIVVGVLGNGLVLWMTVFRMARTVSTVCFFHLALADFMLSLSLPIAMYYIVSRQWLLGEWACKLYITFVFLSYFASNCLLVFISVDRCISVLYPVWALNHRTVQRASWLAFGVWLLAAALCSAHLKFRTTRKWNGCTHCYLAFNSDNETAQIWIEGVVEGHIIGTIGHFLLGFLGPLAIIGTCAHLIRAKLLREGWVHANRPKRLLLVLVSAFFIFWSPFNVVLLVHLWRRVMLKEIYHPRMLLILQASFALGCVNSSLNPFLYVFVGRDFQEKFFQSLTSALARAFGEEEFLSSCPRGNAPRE

activation, inactive:
COc1cccc(N2CCN(C(=O)c3c(C)oc4ncnc(N5CCCCC5)c34)CC2)c1 -1.2%
COc1ccc(N2CC3=C(C2=O)C(c2ccc(Br)cc2)NC(=O)N3C)cc1 (stereo not drawn) 1.55%
Cc1cc(Nc2sc(C(=O)c3ccc(F)cc3)c(N)c2C(=O)Nc2ccc(F)cc2)ccc1Cl -77%
Cc1ccc(Cl)cc1N1CCN(CCCNc2ncnc3onc(-c4ccc(F)cc4)c23)CC1 14.3%
O=C1CC(=O)Nc2cc(S(=O)(=O)N3CCOc4ccccc43)ccc2N1 -7.35%
CC(C)CN(CCCNC(=O)CN1C(=O)COc2ccc(S(=O)(=O)N3CCCCCC3)cc21)CC(C)C -14.8%
COc1cc(NC(=O)CSc2nc(C)c(C(=O)Nc3ccccc3)c(-c3ccc(OC)c(OC)c3)c2C#N)c(OC)cc1Cl 25%
COc1cccc(-n2c(=O)c3sc4ccccc4c3n(CC(=O)Nc3ccc(F)cc3F)c2=O)c1 2.4%
CC1CCN(C(=O)c2cnn(-c3ccc(Cl)cc3)c2C2CCN(C(=O)OC(C)(C)C)CC2)CC1 -6.09%
Cc1ccc(-c2nc3sccn3c2Nc2ccccc2C)cc1 -27.6%
COc1cccc(CNC(=O)CN2C(=O)CSc3ccc(S(=O)(=O)N(C)C)cc32)c1 -0.997%
CC(C)(C)C1CCc2c(sc(NC(=O)c3cccc(Cl)c3)c2C(N)=O)C1 (stereo not drawn) -1.5%
Cc1c(C(=O)OC2CCCC2)[nH]c2c1C(=O)CC(c1ccc(C(C)(C)C)cc1)C2 (stereo not drawn) 3.43%
Cc1cc2c(cc3c(SCc4ccc(Cl)cc4)nnc(C)n32)o1 -22.9%
COc1ccc(NC(=O)CSc2oc(-c3ccc(C)cc3)nc2S(=O)(=O)c2ccc(C)cc2)c(OC)c1 8.85%
CCC(=O)Oc1c(Sc2ccc(Cl)cc2)c(C)nn1C(C)(C)C 29.2%
CCN(CCCNC(=O)c1cc2cc3cc(OC)ccc3nc2s1)c1cccc(C)c1 -8.46%
CSCCC(NS(=O)(=O)c1ccc2c(c1)oc(=O)n2C)C(=O)N1CCN(c2cc(Cl)ccc2C)CC1 (stereo not drawn) -27.5%
Cc1cccc(N2CCN(C(=O)c3nn(C)c4c3CSc3ccccc3-4)CC2C)c1 (stereo not drawn) 1.33%
CCOC(=O)c1ccccc1NC(=O)CSc1nc2ncccc2o1 -6.62%
CCN1CCN(Cc2c(O)ccc3oc(C)c(C(=O)Nc4ccc(OC)c(Cl)c4)c23)CC1 -5.03%
CCc1cccc(NC(=O)CNS(=O)(=O)c2ccc3nc(C)sc3c2)c1 -80.2%
COc1ccc2c(c1)c1c(c(=O)n(-c3cccc(C)c3)c(=O)n1CC(=O)Nc1c(C)cc(C)cc1C)n2C -12.8%
Cc1cn(C)c(CC(=O)NCc2ccc(F)cc2)c1C(=O)O -4.04%
Cc1cc(C)cc(NC(=O)CN2C(=O)COc3ccc(S(=O)(=O)Nc4ccccc4)cc32)c1 -0.182%
CCC(C)NC(=O)c1cn(CC)c2ccc(S(=O)(=O)N3CCCCC3)cc2c1=O (stereo not drawn) 6.03%
Cc1ccc(CSC2=Nc3ccccc3C3=NC(CC(=O)NC4CCCCC4)C(=O)N23)c(C)c1 (stereo not drawn) -9.38%
Cc1ccc2nc(-c3ccncc3)c(Nc3ccccc3C)n2c1 -27.8%
CC1=C(c2ccc(C)cc2)S(=O)(=O)N=C1N1CCN(c2ccccc2)CC1 -5.76%
Cc1cc(Nc2cccc(C(F)(F)F)c2)ncn1 4.72%
Cc1ccc(C(NC(=O)Cc2cccs2)C(=O)Nc2ccc(C(C)C)cc2)cc1 (stereo not drawn) -8.47%
CN(Cc1ccccc1)S(=O)(=O)c1ccc(F)c(C(=O)Nc2ccccc2C(F)(F)F)c1 -22.9%
Cc1cccc(-c2nc3c4ccccc4nc(NCc4ccccc4Cl)n3n2)c1 0.313%
Cc1ccc(NS(=O)(=O)c2ccc3c4c(cccc24)C(=O)N3)c(C)c1 -3.19%
CCn1cc(C(=O)NCc2ccccc2)c(=O)c2cc(S(=O)(=O)N3CCCCC3)ccc21 0.542%
CNS(=O)(=O)c1cn(CC(=O)N2CCN(c3ccc(OC)cc3)CC2)cc1S(=O)(=O)NC -6.22%
O=C(Nc1ccc(N2CCC(N3CCCCC3)CC2)c(C(=O)O)c1)c1ccccc1 25.7%
O=C(COc1ccccc1)N(Cc1cccnc1)c1nc2ccc(Cl)cc2s1 -14.6%
O=C(Nc1ccc2oc(-c3cccnc3)nc2c1)c1ccc(-c2ccc(Cl)cc2)o1 32.9%
Cc1cc2oc(C(=O)Nc3sc4c(c3C(=O)NCC3CCCO3)CCC4)cc(=O)c2cc1C (stereo not drawn) -16.5%
CC(=O)Nc1ccc(O)cc1 12.3%
COc1ccc(CNC(=O)CSc2nc3ccsc3c(=O)n2Cc2ccccc2Cl)cc1 4.77%
CCc1ccc(N2C(=O)CC(c3cc(OC)ccc3OC)C3=C2COC3=O)cc1 (stereo not drawn) -3.7%
CCOc1ccc(C2CC(=O)n3nc(-c4ccc(C)cc4)nc3S2)cc1 (stereo not drawn) -2.48%
Cc1ccc(NC(=O)Cn2ncn3c(cc4ccccc43)c2=O)c(C)c1 -16.5%
COc1ccccc1CNC(=O)Cc1csc2nc(-c3ccc(Cl)cc3)cn12 -4.71%
CCOc1cc(CNC(=O)c2ccc(C)c(NC(=O)c3nsc4ccccc34)c2)ccc1OC -15.5%
CC(NC(=O)c1ccc2c(c1)N(Cc1ccc(Cl)cc1)C(=O)c1ccccc1S2(=O)=O)c1ccccc1 (stereo not drawn) -33.8%
CCOc1cc2sc(N3CCC(C(=O)Nc4ccc(C)cc4)CC3)nc2cc1Br -4.63%
CCCCCn1c(=N)c(S(=O)(=O)c2ccccc2)cc2c(=O)n3ccccc3nc21 -7.37%
CCOc1ccc(CCNC(=O)Cn2nc(CC)n3c(cc4sc(CC)cc43)c2=O)cc1OCC -16%
CCn1c(=O)c2cc(C(=O)NC3CCCCCC3)sc2c2ccccc21 -7.98%
COc1ccc(CNC(=O)CN(c2ccccc2OC)S(=O)(=O)c2ccc(C)cc2)cc1 6.29%

Reference: PubChem BioAssay AID1346428 (National Center for Advancing Translational Sciences (NCATS), 2018)
